Consider 16 sequences from the supplement of paper PMC7726561.

In all, about 1,100 sequences were measured (“thermal melting temperature (Tm) of peptide-HLA complex”: median about 58, lowest 2% from about 42 on). This is one part of the list.
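Further: cell lysates heated 10 min at 37–73 °C, remaining pHLA pulled down with pan-class I antibody, peptides quantified by DIA-MS versus 37 °C, Tm where half the complex is lost.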

This test addresses HLA-A*02:01. The experiment in a line: thermal melting temperature (Tm) of peptide-HLA complex; higher = more thermostable pHLA complex. As to conditions: C1R-A*02:01.
With ILAPVVKEI, the thermal melting temperature was 59.6 °C. Sequence ALFPERITV gave a thermal melting temperature of 61.6 °C. In the case of AIVDKVPSV, the thermal melting temperature came out at 61.5 °C. Consider MTDPIRILV, for which the thermal melting temperature stood at 41.9 °C. As to KLDEAFEFV, the thermal melting temperature worked out at 57.6 °C. RLNEESGALL: the thermal melting temperature worked out at 51 °C. In the case of ALLGRIPSA, the thermal melting temperature came out at 57.6 °C.

As for VVIPGKVEEV, the thermal melting temperature stood at 54.8 °C. For ALRDVSEEL, the thermal melting temperature worked out at 59.2 °C. In turn, VLFEKEVNEV had a thermal melting temperature of 59.8 °C. On to MLYPEVIQQV, for which the thermal melting temperature stood at 54.4 °C. For SLPELVHAV, the thermal melting temperature amounted to 60.5 °C.

KLGSVPVTV registered a thermal melting temperature of 59.1 °C. TVADKIHSV yielded a thermal melting temperature of 55.7 °C. For the sequence LQLDPAQIYRV, the thermal melting temperature was determined as 55.6 °C.

For YQLGELVKV, the thermal melting temperature was 55.9 °C.
